About 14,000 (4.5%) of roughly 310,000 compounds showed an effect of 50% or more. The effect is printed as a negative number. This is one part of the list.
Molecular target: human ether-à-go-go-related gene (hERG) potassium channel (human, UniProt Q12809)
Assay: primary screen, population patch clamp on CHO cells stably expressing hERG
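Note: peak tail current of the secondary pulse compared with the same well before compound.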

human ether-à-go-go-related gene (hERG) potassium channel, sequence (Q12809 whole entry, looked up): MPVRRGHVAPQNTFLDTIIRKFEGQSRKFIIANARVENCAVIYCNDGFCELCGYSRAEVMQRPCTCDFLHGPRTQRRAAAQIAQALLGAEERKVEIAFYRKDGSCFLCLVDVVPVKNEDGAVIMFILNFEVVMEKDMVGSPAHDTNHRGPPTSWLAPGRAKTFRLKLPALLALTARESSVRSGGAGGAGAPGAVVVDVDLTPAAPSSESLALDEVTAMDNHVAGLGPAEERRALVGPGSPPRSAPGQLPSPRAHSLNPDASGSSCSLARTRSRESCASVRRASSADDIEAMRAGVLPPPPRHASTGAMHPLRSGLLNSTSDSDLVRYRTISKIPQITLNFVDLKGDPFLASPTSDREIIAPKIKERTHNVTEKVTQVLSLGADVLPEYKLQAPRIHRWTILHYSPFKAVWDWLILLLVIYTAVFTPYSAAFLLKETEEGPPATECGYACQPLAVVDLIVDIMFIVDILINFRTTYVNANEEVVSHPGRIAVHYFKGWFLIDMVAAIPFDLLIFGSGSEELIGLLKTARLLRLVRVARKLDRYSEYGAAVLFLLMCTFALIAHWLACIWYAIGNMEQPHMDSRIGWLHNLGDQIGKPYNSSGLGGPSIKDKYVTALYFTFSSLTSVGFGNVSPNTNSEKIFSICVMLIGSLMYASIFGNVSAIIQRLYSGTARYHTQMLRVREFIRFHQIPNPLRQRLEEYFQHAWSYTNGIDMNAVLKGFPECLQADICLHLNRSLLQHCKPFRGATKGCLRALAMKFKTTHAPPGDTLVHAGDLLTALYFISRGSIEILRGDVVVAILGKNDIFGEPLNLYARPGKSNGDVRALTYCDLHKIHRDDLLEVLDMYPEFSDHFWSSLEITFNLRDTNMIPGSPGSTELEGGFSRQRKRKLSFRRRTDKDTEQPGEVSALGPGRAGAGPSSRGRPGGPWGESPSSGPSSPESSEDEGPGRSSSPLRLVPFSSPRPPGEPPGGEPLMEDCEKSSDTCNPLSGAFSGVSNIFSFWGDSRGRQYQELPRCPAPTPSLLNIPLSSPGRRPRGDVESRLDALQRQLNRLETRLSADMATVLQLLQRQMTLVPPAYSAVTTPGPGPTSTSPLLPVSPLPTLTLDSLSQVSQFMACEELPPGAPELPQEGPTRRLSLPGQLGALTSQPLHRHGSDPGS

Compound	hERG current change (%, negative = inhibition) at 10uM [%]
C=CCc1ccc(OC(=O)c2ccccc2)c(OC)c1	5.73
O=C(c1ccco1)N1CCN(c2cc(C(F)(F)F)nc3ncnn23)CC1	-16.7
COc1ccc(C(CNC(=O)c2ccc(-c3cccc(C(F)(F)F)c3)o2)N2CCOCC2)cc1 (stereo not shown)	-6.09
CC1(C(=O)NCCc2c[nH]c3ccccc23)C=CC2(CCCCC2)N1C(=O)c1ccccc1 (stereo not shown)	-9.82
COc1ccc(NC(=O)c2ccc(S(=O)(=O)N3CCCCC3)cc2)c(OC)c1	-2.09
N#CC(c1ccc(Cl)nn1)c1ccccc1Cl (stereo not shown)	-1.26
COC(=O)C1(C)NC(c2ccccc2C)C2C(=O)N(c3ccc(F)cc3)C(=O)C21 (stereo not shown)	1.12
COc1ccc(S(=O)(=O)N2CCC(C(=O)Nc3ccccc3N3CCCC3)CC2)cc1OC	-23.7
O=C(COc1ccccc1)Nc1ccccc1Oc1ccccc1	-8.35
CC(=O)Nc1ccc(C(=O)OCC(=O)N2CCC(Cc3ccccc3)CC2)cc1	0.85
Cc1ccc(COc2cccc(/C=N/NC(=O)c3nnn(-c4nonc4N)c3C)c2)cc1	23.7
Cc1cc(C)c(S(=O)(=O)N(C)CC(N)=O)c(C)c1	-4.51
Cc1ccccc1NC(=O)c1cccc(S(=O)(=O)Nc2cccc(C(=O)O)c2)c1	21.2
O=C(NCCc1c[nH]c2ccccc12)C1CCN(S(=O)(=O)c2ccccc2F)CC1	-2.01
Cc1cc(-c2n[nH]c(=S)n2/N=C/c2ccc(C)s2)n[nH]1	13.4
O=[N+]([O-])c1ccc(/C=N/n2c(-c3ccccc3)n[nH]c2=S)cc1	11.3
CN(C)S(=O)(=O)c1cccc(-c2nn(-c3ccccc3)cc2/C=C2\SC(=S)N(CC(=O)O)C2=O)c1	7.46
Cc1ccnc(NC(=O)c2cccc(NC(=O)COc3ccccc3)c2)c1	-38.3
Cc1cc(C)c(S(=O)(=O)NCc2cccnc2)cc1C	13.4
CC(=O)Nc1ccc(Nc2cc(N(C)C)c3nonc3c2[N+](=O)[O-])cc1	10.6
Cc1nc2ccccn2c1C(=O)Nc1ccc(Cl)cc1	1.65
COc1cc(C2C(C#N)=C(N)Oc3n[nH]c(C)c32)cc2c1OCO2 (stereo not shown)	-3.43

Compound	hERG current change (%, negative = inhibition) at 10uM [%]
O=C(CN1CC(c2ccccc2)CC1=O)Nc1ccccc1 (stereo not shown)	5.88
O=C(CSc1nnc(-c2ccccc2O)n1-c1ccccc1)Nc1cccc(C(=O)O)c1	12.7
CCn1ncc(C2=NOC(C(=O)N3CCN(c4ccccc4)CC3)C2)c1C (stereo not shown)	-16.4
CS(=O)(=O)Cc1ccc(C(=O)NC(c2ccccc2)c2ccccc2)cc1	13.2
Cc1cc(C)cc(NC(=O)CS(=O)(=O)c2cccc3nsnc23)c1	3.39
CCCCCOc1ccc(CSc2ncn[nH]2)cc1	-17.4
Cl.c1ccc(CNc2c3c(nc4ccccc24)CCC3)cc1	-75.3
Cc1ccc(OC(=O)c2ccncc2)c(C)c1	7.55
COc1ccc(C(=O)NNC(=S)NC(=O)c2ccc(Br)o2)cc1OC	24.8
CC(C)CC1NC(=O)N(CC(=O)N2c3ccccc3NC(=O)C2(C)C)C1=O (stereo not shown)	1.31
CC(=O)N[C@@H](Cc1c[nH]c2ccccc12)C(=O)NC1CC1	21.1
O=C(CCNC(=O)C1CCN(S(=O)(=O)c2ccc(F)cc2)CC1)NCCc1cccc(F)c1	11.8
COc1cccc(NC(=O)Cn2c(=O)n(C)c(=O)c3sc4c(c32)COC(C)(C)C4)c1	6.82
CCCCNC(=O)c1cc2c(=O)n3cccc(C)c3nc2n(Cc2ccccc2)c1=N	-77.6
C=CCn1c(C)cc(C(=O)Cn2ncc(Cl)c(Cl)c2=O)c1C	-16.6
COc1ccc(-c2csc(Nc3cccc(C)n3)n2)cc1C	5.87
O=C(C1CCCO1)N1CCN(C(=S)Nc2ccc(Br)cc2)CC1 (stereo not shown)	-13.3
COc1cccc(CN(C(=O)COc2ccc(Cl)cc2)C2CCS(=O)(=O)C2)c1 (stereo not shown)	-45.5
O=C(CSc1nc2ccccc2o1)Nc1nncs1	3.83
CCC(=O)N(c1ccc(F)cc1)C1C=CS(=O)(=O)C1 (stereo not shown)	7.02
CC1(C(=O)NCc2ccc(Cl)c(Cl)c2)Oc2ccccc2NC1=O (stereo not shown)	-1.97
